Cytotoxicity call and growth inhibition call data for 26 molecules are collected here from the antibiotic and cytotoxicity screens of Wong et al. (2023).

For one experiment, the system named is HSkMC. Kind of experiment: cytotoxicity call (relative viability < 0.9). As to conditions: 10 µM.
The subject of the next experiment is HepG2. Kind of experiment: cytotoxicity call (relative viability < 0.9). As to conditions: 10 µM.
In another experiment the test system is S. aureus RN4220. The experiment can be described thus: growth inhibition call (relative growth <= 0.2). The note with it: 50 µM.

This is one part of the list.

Take `CC(C)CC#Cc1ccc2c(c1)O[C@@H](CN(C)C(=O)Cc1cccnc1)[C@@H](C)CN([C@@H](C)CO)S2(=O)=O`: the cytotoxicity call in the experiment on HSkMC and in the experiment on HepG2 was “inactive” throughout. Besides, the growth inhibition call in the experiment with S. aureus RN4220 is “inactive”.

For `Cc1noc(C)c1S(=O)(=O)Nc1ccc2c(c1)C(=O)N([C@H](C)CO)C[C@@H](C)[C@@H](CN(C)Cc1ccc(Oc3ccccc3)cc1)O2`, the cytotoxicity call in the experiment on HSkMC and with HepG2 was “inactive” in each case. For the same molecule, the growth inhibition call in the experiment with S. aureus RN4220 is “inactive”.

Consider `COc1ccc(NC(=O)Nc2ccc3c(c2)CC(=O)N([C@@H](C)CO)C[C@H](C)[C@H](CN(C)Cc2ccc(C(=O)Nc4ccccc4N)cc2)O3)cc1`, for which the cytotoxicity call in the experiment on HSkMC and in the experiment on HepG2 was “inactive” in each case. The growth inhibition call in the experiment with S. aureus RN4220 was “inactive”.

As for `Cc1ccc(S(=O)(=O)N2C[C@H](O)COC[C@@H]3O[C@H](CC(=O)NCc4ccc5c(c4)OCO5)CC[C@H]32)cc1`, the cytotoxicity call in the experiment with HSkMC is “inactive”. Moreover, the cytotoxicity call in the experiment with HepG2 was “active”. In the experiment with S. aureus RN4220, the growth inhibition call was “inactive”.

As for `O=c1[nH]cc(NCc2ccccc2)c(=O)[nH]1`, the cytotoxicity call in the experiment with HSkMC and in the experiment on HepG2 was “inactive” throughout. Besides, in the experiment on S. aureus RN4220, the growth inhibition call is “inactive”.

Turning to `COc1ccc(C(=O)c2ccc(C)cc2)c(O)c1`, the cytotoxicity call with HSkMC and with HepG2 was “inactive” in each case. In the experiment on S. aureus RN4220, the growth inhibition call was “inactive”.

In the case of `CCCCCC(CC(=O)O)C(=O)O` (stereo not drawn), the cytotoxicity call with HSkMC and with HepG2 was “inactive” throughout. Further, in the experiment on S. aureus RN4220, the growth inhibition call was “inactive”.

As to `COc1ccccc1CNC(=O)C[C@H]1C[C@@H]2c3cc(NS(=O)(=O)c4ccc(F)cc4)ccc3O[C@@H]2[C@H](CO)O1`, the cytotoxicity call in the experiment with HSkMC and in the experiment on HepG2 was “inactive” throughout. Moreover, in the experiment on S. aureus RN4220, the growth inhibition call was “inactive”.

`C[C@H]1CN([C@@H](C)CO)C(=O)CCCn2nncc2CO[C@@H]1CN(C)C(=O)Nc1ccc2c(c1)OCCO2`: the cytotoxicity call in the experiment on HSkMC and in the experiment on HepG2 was “inactive” throughout. In the experiment on S. aureus RN4220, the growth inhibition call is “inactive”.

In the case of `C[C@H](CO)N1C[C@H](C)[C@@H](CN(C)C(=O)Nc2ccc(C(F)(F)F)cc2)Oc2ccc(NC(=O)Nc3cccc4ccccc34)cc2C1=O`, the cytotoxicity call in the experiment on HSkMC and in the experiment with HepG2 was “inactive” each time. Besides, the growth inhibition call in the experiment with S. aureus RN4220 was “inactive”.

Take `C[C@H]1CN([C@@H](C)CO)C(=O)Cc2cc(NC(=O)CCCCCC(=O)Nc3ccccc3N)ccc2O[C@@H]1CN(C)Cc1ccc(Cl)c(Cl)c1`: the cytotoxicity call in the experiment on HSkMC and in the experiment on HepG2 was “inactive” in each case. Moreover, the growth inhibition call in the experiment on S. aureus RN4220 was “inactive”.

Consider `CCS(=O)(=O)N1C[C@]2(C1)CN([C@H](CO)c1c2c2ccc(cc2n1C)OC)S(=O)(=O)c1ccccc1`, for which the cytotoxicity call in the experiment with HSkMC and in the experiment on HepG2 was “inactive” throughout. Besides, the growth inhibition call in the experiment on S. aureus RN4220 is “inactive”.

Consider `C[C@H](CO)N1C[C@H](C)[C@@H](CN(C)Cc2ccncc2)Oc2c(NS(=O)(=O)c3cccs3)cccc2C1=O`, for which the cytotoxicity call with HSkMC and in the experiment with HepG2 was “inactive” each time. For the same molecule, the growth inhibition call in the experiment with S. aureus RN4220 was “inactive”.

On to `CC(C)NC(=O)N(C)C[C@@H]1Oc2ccc(NC(=O)NC3CCCCC3)cc2CC(=O)N([C@H](C)CO)C[C@@H]1C`, for which the cytotoxicity call in the experiment with HSkMC and in the experiment with HepG2 was “inactive” in each case. The growth inhibition call with S. aureus RN4220 is “inactive”.

For `CN(C)CCCNC(=O)[C@@]1(Cc2ccccc2I)c2ccccc2C(=O)N(C2CCCCC2)[C@H]1c1ccc(CO)cc1`, the cytotoxicity call in the experiment with HSkMC is “inactive”. The cytotoxicity call in the experiment with HepG2 was “active”. In addition, the growth inhibition call in the experiment with S. aureus RN4220 was “inactive”.

As to `CN(C)C(=O)C[C@H]1C=C[C@H](NC(=O)C2CCOCC2)[C@@H](CO)O1`, the cytotoxicity call in the experiment on HSkMC and in the experiment with HepG2 was “inactive” throughout. In the experiment on S. aureus RN4220, the growth inhibition call was “inactive”.

As to `C[C@@H]1CCCCO[C@@H](CN(C)S(=O)(=O)c2cccs2)[C@H](C)CN([C@@H](C)CO)C(=O)c2cc(NS(=O)(=O)c3ccc(Cl)cc3)ccc2O1`, the cytotoxicity call in the experiment on HSkMC and with HepG2 was “inactive” throughout. The growth inhibition call with S. aureus RN4220 is “inactive”.

For the molecule `C[C@H](CO)N1C[C@H](C)[C@H](CN(C)C(=O)c2ccc3c(c2)OCO3)Oc2cc(-c3cccnc3)ccc2S1(=O)=O`, the cytotoxicity call in the experiment with HSkMC and in the experiment on HepG2 was “inactive” in each case. The growth inhibition call with S. aureus RN4220 was “inactive”.

Take `C[C@@H]1CCCCO[C@@H](CN(C)C(=O)Nc2cccc3ccccc23)[C@@H](C)CN([C@H](C)CO)C(=O)c2cc(NC(=O)CCC(F)(F)F)ccc2O1`: the cytotoxicity call in the experiment with HSkMC and with HepG2 was “inactive” each time. The growth inhibition call in the experiment with S. aureus RN4220 was “inactive”.

As to `CN1CCN([C@@H](CNC(=O)C(=O)NCc2ccco2)c2ccc3c(c2)OCO3)CC1`, the cytotoxicity call in the experiment on HSkMC and in the experiment on HepG2 was “inactive” throughout. Moreover, the growth inhibition call with S. aureus RN4220 was “inactive”.

In the case of `CCCCN1CNC(=S)NC1`, the cytotoxicity call with HSkMC is “inactive”. Moreover, the cytotoxicity call in the experiment on HepG2 was “active”. Moreover, in the experiment with S. aureus RN4220, the growth inhibition call is “inactive”.

With `Cc1ccccc1S(=O)(=O)N1C[C@@H](O)COC[C@H]2O[C@@H](CC(=O)N3CCN(C)CC3)CC[C@@H]21`, the cytotoxicity call with HSkMC and in the experiment on HepG2 was “inactive” throughout. In addition, in the experiment with S. aureus RN4220, the growth inhibition call was “inactive”.

Take `C[C@H](CO)N1C[C@H](C)[C@H](CN(C)S(=O)(=O)c2cccc(F)c2)Oc2ncc(C#CC(C)(C)O)cc2C1=O`: the cytotoxicity call in the experiment on HSkMC and in the experiment on HepG2 was “inactive” each time. In the experiment on S. aureus RN4220, the growth inhibition call was “inactive”.

In the case of `CO[C@H]1CN(C)C(=O)c2ccc(NC(=O)C3CC3)cc2OC[C@H](C)N(C(=O)Cc2ccccn2)C[C@H]1C`, the cytotoxicity call in the experiment on HSkMC and with HepG2 was “inactive” throughout. Besides, in the experiment with S. aureus RN4220, the growth inhibition call was “inactive”.

In the case of `COc1ccc(NC(=O)N(C)C[C@@H]2OCCCC[C@@H](C)Oc3ccc(NS(=O)(=O)c4ccc(F)cc4)cc3C(=O)N([C@@H](C)CO)C[C@H]2C)cc1`, the cytotoxicity call with HSkMC and with HepG2 was “inactive” in each case. The growth inhibition call in the experiment with S. aureus RN4220 was “inactive”.

Consider `C[C@@H]1CN([C@@H](C)CO)C(=O)c2cc(C#CCN(C)C)cnc2O[C@@H]1CN(C)S(C)(=O)=O`, for which the cytotoxicity call in the experiment on HSkMC (human skeletal muscle cells) and in the experiment on HepG2 was “inactive” in each case. Further, the growth inhibition call in the experiment on S. aureus RN4220 is “inactive”.
